Results reported in the supplement of paper PMC8728848.
The other results are listed elsewhere or left out.

Assays:
Assay in all cases: glycan array binding signal (z-score within array); higher = stronger binding
Conditions in all cases: glycan notation: IUPAC condensed, linker removed; mutation: K176L
[1] = target: Neu5Ac(a2-3)Gal(b1-4)GlcNAc(b1-3)Gal(b1-4)GlcNAc(b1-3)Gal(b1-4)GlcNAc
Summary of the method: (§1)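 Glycan array data were curated from 3228 arrays in the Consortium for Functional Glycomics database and kept only where the protein sequence was available. Glycan names were converted to IUPAC-condensed notation, and columns mapping to the same glycan were averaged. The binding signal is a within-array Z-score, averaged across arrays of the same protein sequence at different concentrations or buffers and across linkers. Negative Z-scores can be read as non-binding.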

[2] = target: Neu5Ac(a2-3)Gal(b1-4)GlcNAc(b1-3)Gal(b1-4)[Fuc(a1-3)]GlcNAc
Summary of the method: as §1

[3] = target: Neu5Ac(a2-3)Gal(b1-4)GlcNAc(b1-3)GalNAc
Summary of the method: as §1

[4] = target: Neu5Ac(a2-3)Gal(b1-4)GlcNAc(b1-6)[Gal(b1-3)]GalNAc
Summary of the method: as §1

[5] = target: Neu5Ac(a2-3)Gal(b1-4)GlcNAc(b1-6)[Neu5Ac(a2-3)Gal(b1-3)]GalNAc
Summary of the method: as §1

[6] = target: Neu5Ac(a2-3)Gal(b1-4)GlcNAc6S
Summary of the method: as §1

[7] = target: Neu5Ac(a2-3)Gal(b1-4)[Fuc(a1-3)]GlcNAc
Summary of the method: as §1

[8] = target: Neu5Ac(a2-3)Gal(b1-4)[Fuc(a1-3)]GlcNAc(b1-3)Gal
Summary of the method: as §1

[9] = target: Neu5Ac(a2-3)Gal(b1-4)[Fuc(a1-3)]GlcNAc(b1-3)Gal(b1-4)GlcNAc
Summary of the method: as §1

[10] = target: Neu5Ac(a2-3)Gal(b1-4)[Fuc(a1-3)]GlcNAc(b1-3)Gal(b1-4)[Fuc(a1-3)]GlcNAc(b1-3)Gal(b1-4)[Fuc(a1-3)]GlcNAc
Summary of the method: as §1

[11] = target: Neu5Ac(a2-3)Gal(b1-4)[Fuc(a1-3)]GlcNAc(b1-3)GalNAc
Summary of the method: as §1

[12] = target: Neu5Ac(a2-3)Gal(b1-4)[Fuc(a1-3)]GlcNAc(b1-6)[Gal(b1-3)]GalNAc
Summary of the method: as §1

[13] = target: Neu5Ac(a2-3)Gal(b1-4)[Fuc(a1-3)]GlcNAc(b1-6)[Neu5Ac(a2-3)Gal(b1-3)]GalNAc
Summary of the method: as §1

[14] = target: Neu5Ac(a2-3)Gal(b1-4)[Fuc(a1-3)]GlcNAc6S
Summary of the method: as §1

[15] = target: Neu5Ac(a2-3)Gal6S(b1-4)GlcNAc
Summary of the method: as §1

[16] = target: Neu5Ac(a2-3)Gal6S(b1-4)[Fuc(a1-3)]GlcNAc
Summary of the method: as §1

[17] = target: Neu5Ac(a2-3)GalNAc
Summary of the method: as §1

[18] = target: Neu5Ac(a2-3)GalNAc(b1-4)GlcNAc
Summary of the method: as §1

[19] = target: Neu5Ac(a2-3)[GalNAc(b1-4)]Gal(b1-4)Glc
Summary of the method: as §1

[20] = target: Neu5Ac(a2-3)[GalNAc(b1-4)]Gal(b1-4)GlcNAc
Summary of the method: as §1

[21] = target: Neu5Ac(a2-3)[GalNAc(b1-4)]Gal(b1-4)GlcNAc(b1-3)GalNAc
Summary of the method: as §1

[22] = target: Neu5Ac(a2-3)[Neu5Ac(a2-6)]GalNAc
Summary of the method: as §1

[23] = target: Neu5Ac(a2-6)Gal
Summary of the method: as §1

[24] = target: Neu5Ac(a2-6)Gal(b1-4)Glc
Summary of the method: as §1

[25] = target: Neu5Ac(a2-6)Gal(b1-4)GlcNAc
Summary of the method: as §1

[26] = target: Neu5Ac(a2-6)Gal(b1-4)GlcNAc(b1-2)Man(a1-3)Man(b1-4)GlcNAc(b1-4)GlcNAc
Summary of the method: as §1

[27] = target: Neu5Ac(a2-6)Gal(b1-4)GlcNAc(b1-2)Man(a1-3)[Gal(b1-4)GlcNAc(b1-2)Man(a1-6)]Man(b1-4)GlcNAc(b1-4)GlcNAc
Summary of the method: as §1

[28] = target: Neu5Ac(a2-6)Gal(b1-4)GlcNAc(b1-2)Man(a1-3)[GlcNAc(b1-2)Man(a1-6)]Man(b1-4)GlcNAc(b1-4)GlcNAc
Summary of the method: as §1

[29] = target: Neu5Ac(a2-6)Gal(b1-4)GlcNAc(b1-2)Man(a1-3)[GlcNAc(b1-2)Man(b1-4)GlcNAc(b1-2)Man(a1-6)]Man(b1-4)GlcNAc(b1-4)GlcNAc
Summary of the method: as §1

[30] = target: Neu5Ac(a2-6)Gal(b1-4)GlcNAc(b1-2)Man(a1-3)[Man(a1-6)]Man(b1-4)GlcNAc(b1-4)GlcNAc
Summary of the method: as §1

[31] = target: Neu5Ac(a2-6)Gal(b1-4)GlcNAc(b1-2)Man(a1-3)[Neu5Ac(a2-6)Gal(b1-4)GlcNAc(b1-2)Man(a1-6)]Man(b1-4)GlcNAc(b1-4)GlcNAc
Summary of the method: as §1

[32] = target: Neu5Ac(a2-6)Gal(b1-4)GlcNAc(b1-2)Man(a1-6)Man(b1-4)GlcNAc(b1-4)GlcNAc
Summary of the method: as §1

[33] = target: Neu5Ac(a2-6)Gal(b1-4)GlcNAc(b1-2)Man(a1-6)[Gal(b1-4)GlcNAc(b1-2)Man(a1-3)]Man(b1-4)GlcNAc(b1-4)GlcNAc
Summary of the method: as §1

[34] = target: Neu5Ac(a2-6)Gal(b1-4)GlcNAc(b1-2)Man(a1-6)[GlcNAc(b1-2)Man(a1-3)]Man(b1-4)GlcNAc(b1-4)GlcNAc
Summary of the method: as §1

[35] = target: Neu5Ac(a2-6)Gal(b1-4)GlcNAc(b1-2)Man(a1-6)[Man(a1-3)]Man(b1-4)GlcNAc(b1-4)GlcNAc
Summary of the method: as §1

[36] = target: Neu5Ac(a2-6)Gal(b1-4)GlcNAc(b1-3)Gal(b1-3)GlcNAc
Summary of the method: as §1

[37] = target: Neu5Ac(a2-6)Gal(b1-4)GlcNAc(b1-3)Gal(b1-4)GlcNAc
Summary of the method: as §1

[38] = target: Neu5Ac(a2-6)Gal(b1-4)GlcNAc(b1-3)Gal(b1-4)GlcNAc(b1-3)Gal(b1-4)GlcNAc
Summary of the method: as §1

[39] = target: Neu5Ac(a2-6)Gal(b1-4)GlcNAc(b1-3)Gal(b1-4)[Fuc(a1-3)]GlcNAc(b1-3)Gal(b1-4)[Fuc(a1-3)]GlcNAc
Summary of the method: as §1

[40] = target: Neu5Ac(a2-6)Gal(b1-4)GlcNAc(b1-3)GalNAc
Summary of the method: as §1

[41] = target: Neu5Ac(a2-6)Gal(b1-4)GlcNAc6S
Summary of the method: as §1

[42] = target: Neu5Ac(a2-6)GalNAc
Summary of the method: as §1

[43] = target: Neu5Ac(a2-6)GalNAc(b1-4)GlcNAc
Summary of the method: as §1

[44] = target: Neu5Ac(a2-6)GlcNAc(b1-4)GlcNAc
Summary of the method: as §1

[45] = target: Neu5Ac(a2-6)GlcNAc(b1-4)GlcNAc(b1-4)GlcNAc
Summary of the method: as §1

B1: Gal 3 (Homo sapiens), P17931 (protein)
chain: MADNFSLHDALSGSGNPNPQGWPGAWGNQPAGAGGYPGASYPGAYPGQAPPGAYPGQAPPGAYHGAPGAYPGAPAPGVYPGPPSGPGAYPSSGQPSAPGAYPATGPYGAPAGPLIVPYNLPLPGGVVPRMLITILGTVKPNANILDFQRGNDVAFHFNPRFNENNRRVIVCNTLLDNNWGREERQSVFPFESGKPFKIQVLVEPDHFKVAVNDAHLLQYNHRVKKLNEISKLGISGDIDLTSASYTMI
[1]
  glycan array binding signal (z-score): 2.86
[2]
  glycan array binding signal (z-score): -0.274
[3]
  glycan array binding signal (z-score): -0.265
[4]
  glycan array binding signal (z-score): -0.272
[5]
  glycan array binding signal (z-score): -0.268
[6]
  glycan array binding signal (z-score): -0.266
[7]
  glycan array binding signal (z-score): -0.266
[8]
  glycan array binding signal (z-score): -0.274
[9]
  glycan array binding signal (z-score): -0.26
[10]
  glycan array binding signal (z-score): -0.272
[11]
  glycan array binding signal (z-score): -0.24
[12]
  glycan array binding signal (z-score): -0.262
[13]
  glycan array binding signal (z-score): -0.267
[14]
  glycan array binding signal (z-score): -0.27
[15]
  glycan array binding signal (z-score): -0.265
[16]
  glycan array binding signal (z-score): -0.269
[17]
  glycan array binding signal (z-score): -0.263
[18]
  glycan array binding signal (z-score): -0.263
[19]
  glycan array binding signal (z-score): -0.27
[20]
  glycan array binding signal (z-score): -0.266
[21]
  glycan array binding signal (z-score): -0.271
[22]
  glycan array binding signal (z-score): -0.27
[23]
  glycan array binding signal (z-score): -0.26
[24]
  glycan array binding signal (z-score): -0.269
[25]
  glycan array binding signal (z-score): -0.268
[26]
  glycan array binding signal (z-score): -0.266
[27]
  glycan array binding signal (z-score): -0.267
[28]
  glycan array binding signal (z-score): -0.267
[29]
  glycan array binding signal (z-score): -0.258
[30]
  glycan array binding signal (z-score): -0.268
[31]
  glycan array binding signal (z-score): -0.262
[32]
  glycan array binding signal (z-score): -0.268
[33]
  glycan array binding signal (z-score): -0.267
[34]
  glycan array binding signal (z-score): -0.272
[35]
  glycan array binding signal (z-score): -0.271
[36]
  glycan array binding signal (z-score): 2
[37]
  glycan array binding signal (z-score): 1.53
[38]
  glycan array binding signal (z-score): 3.04
[39]
  glycan array binding signal (z-score): -0.268
[40]
  glycan array binding signal (z-score): -0.255
[41]
  glycan array binding signal (z-score): -0.262
[42]
  glycan array binding signal (z-score): -0.271
[43]
  glycan array binding signal (z-score): -0.272
[44]
  glycan array binding signal (z-score): -0.268
[45]
  glycan array binding signal (z-score): -0.269
